The values that follow come from US20250145587A1, “BROMODOMAIN INHIBITORS” (AbbVie Inc., priority 2016, published 2025).

The target in this test is BRD4 (BDII_E352-M457) (Homo sapiens, UniProt O60885). Description: TR-FRET bromodomain binding assay, BRD4 second bromodomain (BDII). Here is the method:
A time-resolved fluorescence resonance energy transfer (TR-FRET) assay was used to determine the affinities of compounds of the Examples listed in Table 1 for each bromodomain of BRD4. […] An Alexa647-labeled BET-inhibitor was used as the fluorescent probe in the assay.
Compound dilution series were prepared in DMSO via an approximately 3-fold serial dilution. Compound dilutions were added directly into white, low-volume assay plates (Perkin Elmer Proxiplate 384 Plus #6008280) using a Labcyte Echo in conjunction with Labcyte Access and Thermo Multidrop CombinL robotics. Compounds were then suspended in eight microliters (μL) of assay buffer (20 mM Sodium Phosphate, pH 6.0, 50 mM NaCl, 1 mM Ethylenediaminetetraacetic acid disodium salt dihydrate, 0.01% Triton X-100, 1 mM DL-Dithiothreitol) containing His-tagged bromodomain, Europium-conjugated anti-His antibody (Invitrogen PV5596) and Alexa-647-conjugated probe.
After a one-hour equilibration at room temperature, TR-FRET ratios were determined using an Envision multilabel plate reader (Ex 340, Em 495/520).
TR-FRET data were normalized to the means of 24 no-compound controls (“high”) and 8 controls containing 1 μM un-labeled probe (“low”). Percent inhibition was plotted as a function of compound concentration and the data were fit with the 4 parameter logistic equation to obtain IC50s. Inhibition constants (Ki) were calculated from the IC50s, probe Kd and probe concentration.
Compound dilution series for Compounds A-E were prepared in DMSO via an approximately 3-fold serial dilution from 0.47 mM to 7.8 nM.
Compound dilutions were added directly into white, low-volume assay plates (Perkin Elmer Proxiplate 384 Plus #6008280) using a Labcyte Echo in conjunction with Labcyte Access and Thermo Multidrop CombinL robotics. Compounds were then suspended in eight microliters (μL) of assay buffer (20 mM Sodium Phosphate, pH 6.0, 50 mM NaCl, 1 mM Ethylenediaminetetraacetic acid disodium salt dihydrate, 0.01% Triton X-100, 1 mM DL-Dithiothreitol) containing His-tagged bromodomain, Europium-conjugated anti-His antibody (Invitrogen PV5596) and Alexa-647-conjugated probe.
The final concentration of 1× assay mixture contained 2% DMSO, 8 nM His-tagged bromodomain, 1 nM Europium-conjugated anti-His-tag antibody and 100 nM or 30 nM probe (for BDI or BDII, respectively) and compound concentration in the range of […]-150 μM.
TR-FRET data were normalized to the means of 24 no-compound controls (“high”) and 8 controls containing 1 μM un-labeled probe (“low”). Percent inhibition was plotted as a function of compound concentration and the data were fit with the 4 parameter logistic equation to obtain IC50s. Inhibition constants (Ki) were calculated from the IC50s, probe Kd and probe concentration. Typical Z′ values were between 0.65 and 0.75. The minimum significant ratio was determined to evaluate assay reproducibility (Eastwood et al., (2006) J Biomol Screen, 11: 253-261). The MSR was determined to be 2.03 for BDI and 1.93 for BDII, and a moving MSR (last six run MSR overtime) for both BDI and BDII was typically <3.
In general terms: In TR-FRET formats the signal depends on donor and acceptor labels being close together.
For the compound `CCS(=O)(=O)c1ccc(Oc2c(C)cccc2C)c(-c2cn(C)c(=O)cc2O[C@H]2CC[C@H](NC(=O)C3CC3)CC2)c1` [Example 11, N-[trans-4-({5-[2-(2,6-dimethylphenoxy)-5-(ethanesulfonyl)phenyl]-1-methyl-2-oxo-1,2-dihydropyridin-4-yl}oxy)cyclohexyl]cyclopropanecarboxamide], the Ki (commonly a measure of affinity in units of concentration, obtained from inhibition or displacement) turned out to be 12.5 nM.
On to `CCS(=O)(=O)c1ccc(Oc2c(C)cccc2C)c(-c2cn(C)c(=O)cc2O[C@H]2CC[C@H](NC(=O)C3(C)CC3)CC2)c1` [Example 10, N-[trans-4-({5-[2-(2,6-dimethylphenoxy)-5-(ethanesulfonyl)phenyl]-1-methyl-2-oxo-1,2-dihydropyridin-4-yl}oxy)cyclohexyl]-1-methylcyclopropane-1-carboxamide], for which the affinity, expressed as Ki, was 41.8 nM.
Then `CCS(=O)(=O)c1ccc(Oc2c(C)cccc2C)c(-c2cn(C)c(=O)cc2O[C@H]2CC[C@H](NC(=O)COC)CC2)c1` [Example 9, N-[trans-4-({5-[2-(2,6-dimethylphenoxy)-5-(ethanesulfonyl)phenyl]-1-methyl-2-oxo-1,2-dihydropyridin-4-yl}oxy)cyclohexyl]-2-methoxyacetamide], with 5.08 nM; and `CCS(=O)(=O)c1ccc(Oc2c(C)cc(F)cc2C)c(-c2cn(C)c(=O)cc2O[C@H]2CC[C@H](N3CCCC3=O)CC2)c1` [Example 19, 5-[5-(ethanesulfonyl)-2-(4-fluoro-2,6-dimethylphenoxy)phenyl]-1-methyl-4-{[trans-4-(2-oxopyrrolidin-1-yl)cyclohexyl]oxy}pyridin-2(1H)-one], with 2.91 nM; and `CCS(=O)(=O)c1ccc(Oc2c(C)cc(F)cc2C)c(-c2cn(C)c(=O)cc2O[C@H]2CC[C@H](N(C)C(C)=O)CC2)c1` [Example 20, N-[trans-4-({5-[5-(ethanesulfonyl)-2-(4-fluoro-2,6-dimethylphenoxy)phenyl]-1-methyl-2-oxo-1,2-dihydropyridin-4-yl}oxy)cyclohexyl]-N-methylacetamide], with 3.3 nM.
In turn, `CCS(=O)(=O)c1ccc(Oc2c(C)cccc2C)c(-c2cn(C)c(=O)cc2O[C@H]2CC[C@H](NC(=O)C(C)(C)C)CC2)c1` [Example 8, N-[trans-4-({5-[2-(2,6-dimethylphenoxy)-5-(ethanesulfonyl)phenyl]-1-methyl-2-oxo-1,2-dihydropyridin-4-yl}oxy)cyclohexyl]-2,2-dimethylpropanamide] showed a Ki of 25.7 nM. Against the preceding compound, the Ki is about 7.8-fold higher.
The same measure for `CCS(=O)(=O)c1ccc(Oc2c(C)cccc2C)c(-c2cn(C)c(=O)cc2O[C@H]2CC[C@H](NC(=O)C3(C)COC3)CC2)c1` [Example 12, N-[trans-4-({5-[2-(2,6-dimethylphenoxy)-5-(ethanesulfonyl)phenyl]-1-methyl-2-oxo-1,2-dihydropyridin-4-yl}oxy)cyclohexyl]-3-methyloxetane-3-carboxamide]: 2.26 nM; for `CCS(=O)(=O)c1ccc(Oc2c(C)cccc2C)c(-c2cn(C)c(=O)cc2O[C@H]2CC[C@H](NC(=O)OC)CC2)c1` [Example 3, methyl [trans-4-({5-[2-(2,6-dimethylphenoxy)-5-(ethanesulfonyl)phenyl]-1-methyl-2-oxo-1,2-dihydropyridin-4-yl}oxy)cyclohexyl]carbamate]: 3.13 nM; for `CCC(=O)N[C@H]1CC[C@H](Oc2cc(=O)n(C)cc2-c2cc(S(=O)(=O)CC)ccc2Oc2c(C)cccc2C)CC1` [Example 7, N-[trans-4-({5-[2-(2,6-dimethylphenoxy)-5-(ethanesulfonyl)phenyl]-1-methyl-2-oxo-1,2-dihydropyridin-4-yl}oxy)cyclohexyl]propanamide]: 9.67 nM.
Then `CCS(=O)(=O)c1ccc(Oc2c(C)cccc2C)c(-c2cn(C)c(=O)cc2O[C@H]2CC[C@H](NC(=O)OC(C)(C)C)CC2)c1` [Example 5, tert-butyl [trans-4-({5-[2-(2,6-dimethylphenoxy)-5-(ethanesulfonyl)phenyl]-1-methyl-2-oxo-1,2-dihydropyridin-4-yl}oxy)cyclohexyl]carbamate], with 13.5 nM; and `CCS(=O)(=O)Nc1ccc(Oc2c(C)cc(C(C)(C)O)cc2C)c(-c2cn(C)c(=O)cc2O[C@H]2CC[C@H](NC(=O)OC)CC2)c1` [Example 15, methyl {trans-4-[(5-{5-[(ethanesulfonyl)amino]-2-[4-(2-hydroxypropan-2-yl)-2,6-dimethylphenoxy]phenyl}-1-methyl-2-oxo-1,2-dihydropyridin-4-yl)oxy]cyclohexyl}carbamate], with 0.508 nM.
Then `CCS(=O)(=O)Nc1cnc(Oc2c(C)cc(F)cc2C)c(-c2cn(C)c(=O)cc2O[C@H]2CC[C@H](NC(=O)OC)CC2)c1` [Example 17, methyl [trans-4-({5′-[(ethanesulfonyl)amino]-2′-(4-fluoro-2,6-dimethylphenoxy)-1-methyl-6-oxo[1,6-dihydro[3,3′-bipyridine]]-4-yl}oxy)cyclohexyl]carbamate], with 1.75 nM; and `COC(=O)N[C@H]1CC[C@H](Oc2cc(=O)n(C)cc2-c2cc(CS(C)(=O)=O)ccc2Oc2c(C)cc(F)cc2C)CC1` [Example 18, methyl {trans-4-[(5-{2-(4-fluoro-2,6-dimethylphenoxy)-5-[(methanesulfonyl)methyl]phenyl}-1-methyl-2-oxo-1,2-dihydropyridin-4-yl)oxy]cyclohexyl}carbamate], with 15.1 nM; and `CCS(=O)(=O)Nc1ccc(Oc2c(C)cc(F)cc2C)c(-c2cn(C)c(=O)cc2O[C@H]2CC[C@H](NC(=O)OC)CC2)c1` [Example 16, methyl {trans-4-[(5-{5-[(ethanesulfonyl)amino]-2-(4-fluoro-2,6-dimethylphenoxy)phenyl}-1-methyl-2-oxo-1,2-dihydropyridin-4-yl)oxy]cyclohexyl}carbamate], with 1.37 nM.
On to `CCS(=O)(=O)Nc1ccc(Oc2c(C)cc(C(C)(C)O)cc2C)c(-c2cn(C)c(=O)cc2O[C@H]2CC[C@H](NC(C)=O)CC2)c1` [Example 14, N-{trans-4-[(5-{5-[(ethanesulfonyl)amino]-2-[4-(2-hydroxypropan-2-yl)-2,6-dimethylphenoxy]phenyl}-1-methyl-2-oxo-1,2-dihydropyridin-4-yl)oxy]cyclohexyl}acetamide], for which the inhibition constant (Ki) worked out at 0.504 nM.
The compound `CCS(=O)(=O)c1ccc(Oc2c(C)cccc2C)c(-c2cn(C)c(=O)cc2O[C@H]2CC[C@H](NC(C)=O)CC2)c1` [Example 1, N-[trans-4-({5-[2-(2,6-dimethylphenoxy)-5-(ethanesulfonyl)phenyl]-1-methyl-2-oxo-1,2-dihydropyridin-4-yl}oxy)cyclohexyl]acetamide] displayed a Ki of 2.55 nM.
The same measure for `CCS(=O)(=O)c1ccc(Oc2c(C)cccc2C)c(-c2cn(C)c(=O)cc2O[C@H]2CC[C@H](NC(=O)C3CC(F)(F)C3)CC2)c1` [Example 13, N-[trans-4-({5-[2-(2,6-dimethylphenoxy)-5-(ethanesulfonyl)phenyl]-1-methyl-2-oxo-1,2-dihydropyridin-4-yl}oxy)cyclohexyl]-3,3-difluorocyclobutane-1-carboxamide]: 3.06 nM; for `CCS(=O)(=O)c1ccc(Oc2c(C)cccc2C)c(-c2cn(C)c(=O)cc2O[C@H]2CC[C@@H](NC(C)=O)CC2)c1` [Example 2, N-[cis-4-({5-[2-(2,6-dimethylphenoxy)-5-(ethanesulfonyl)phenyl]-1-methyl-2-oxo-1,2-dihydropyridin-4-yl}oxy)cyclohexyl]acetamide]: 22.7 nM.
Then `CCS(=O)(=O)c1ccc(Oc2c(C)cccc2C)c(-c2cn(C)c(=O)cc2O[C@H]2CC[C@H](NS(C)(=O)=O)CC2)c1` [Example 4, N-[trans-4-({5-[2-(2,6-dimethylphenoxy)-5-(ethanesulfonyl)phenyl]-1-methyl-2-oxo-1,2-dihydropyridin-4-yl}oxy)cyclohexyl]methanesulfonamide], with 10.4 nM.
The compound `CCS(=O)(=O)c1ccc(Oc2c(C)cccc2C)c(-c2cn(C)c(=O)cc2O[C@H]2CC[C@H](NC(=O)C(F)(F)F)CC2)c1` [Example 6, N-[trans-4-({5-[2-(2,6-dimethylphenoxy)-5-(ethanesulfonyl)phenyl]-1-methyl-2-oxo-1,2-dihydropyridin-4-yl}oxy)cyclohexyl]-2,2,2-trifluoroacetamide] displayed an inhibition constant (Ki) of 1.53 nM.
